PubChem BioAssay AID1508624 (National Center for Advancing Translational Sciences (NCATS), 2021)
Among all 48,000 compounds or so, about 120 (0.25%) were called active. Roughly 4% stayed inconclusive and do not appear here. The call rests on the fitted dose curve; in most records, active means well fitted activation curve with a large enough effect; inconclusive means small, poorly fitted or top-dose-only effect, or another doubt; inactive means no such curve, though single readings can be large or run the other way. This is one part of the list.

experiment: Primary qHTS for Identification of Small Molecule Activators of Huntingtin-Antisense Promoter Activity; settings: HEK293 HTT-AS promoter firefly luciferase reporter (activity 0% = vehicle and -100% = no light), 24 h; series mostly up to 57.5 µM; activity change, positive = activation: at the top concentration; further: nearly all actives have a fitted effect of over 55% in size
How it was run: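 Firefly luciferase signal from promoter-reporter HEK293 cells was scaled between vehicle (0%) and zero RLU (-100%). Compounds were tested at final concentrations of up to 57.5 uM over 24 h at 37 degrees C. PTC124 at 50 uM final served as control inhibitor.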

Activity change, positive = activation, inactive:
COc1ccc(CNC(=O)C(=O)NCC(c2cccnc2)N2CCN(c3ccccc3)CC2)cc1 (stereo not given) -36.2%
Cc1cccc(N(C)S(=O)(=O)c2ccc3c(c2)NC(=O)CC(=O)N3)c1 -5.17%
CCCN1CCCc2cc(CN(CCCN3CCOCC3)C(=O)Nc3ccc(Cl)c(Cl)c3)ccc21 -33.1%
COc1cccc(Cn2c(=O)n(Cc3ccccc3)c(=O)c3c2c2cc(OC)ccc2n3C)c1 -11.6%
CCOc1c(N2CCOCC2)cnn(C)c1=O -0.452%
Cc1cc2[nH]c(=O)c(=O)[nH]c2cc1S(=O)(=O)N1CCN(c2ccccc2F)CC1 -6.27%
COc1ccc2sc(N(Cc3cccnc3)C(=O)CCc3ccccc3)nc2c1 -34.4%
CCOC(=O)c1c(S(=O)(=O)N2CCC(C(=O)NCc3ccccc3Cl)CC2)c(C)n(C)c1C 10.5%
COCCn1ccc2c(OCC(=O)Nc3cccc(C(F)(F)F)c3)cccc2c1=O -21.2%
COc1cccc(CNC(=O)c2ccc3c(c2)sc2nc(-c4cccc(OC)c4)cn23)c1 24.5%
COc1ccc(N2CC(NC(=O)C(c3ccccc3)c3ccccc3)CC2=O)cc1 (stereo not given) -6.94%
CCOC(=O)c1ccc(NC(=O)Cn2nc(C)c3nn(-c4ccc(Cl)cc4)c(C)c3c2=O)cc1 -17.5%
CCc1nc2nc(C)cc(Nc3cc(C)ccc3C)n2n1 -19.1%
Cc1cccc(N2CCN(C(=O)c3cnn(-c4ccccc4)c3C3CCN(C(=O)OC(C)(C)C)CC3)CC2)c1C -4.83%
O=C(O)C1=CO[C@@H](O[C@@H]2O[C@H](CO)[C@H](O)[C@H](O)[C@H]2O)[C@@H]2C(CO)=CC[C@H]12 3.26%
CCOC(=O)c1c(NC(=O)C(C)Sc2cn(CCNC(=O)c3ccc(OCC)cc3)c3ccccc23)sc2c1CCC2 (stereo not given) -38.1%
Clc1ccc(CSc2nncn3c2cc2occc23)cc1 -22.3%
CC(c1cc2ccccc2s1)N(O)C(N)=O (stereo not given)
Cc1nc2nc[nH]n2c(=O)c1NS(=O)(=O)c1ccc(Br)cc1 -9.69%
CCC(=O)N1c2ccccc2CC1C(=O)NCCN1CCN(c2cc(Cl)ccc2C)CC1 (stereo not given) -33.2%
O=C(Cc1ccc(Cl)cc1)Nc1ccc2oc(-c3ccc(F)cc3)nc2c1 -20.1%
COC(=O)c1ccccc1NC(=O)C(Cc1ccccc1)N1Cc2ccccc2C1=O (stereo not given) -0.614%
Cc1cc(C)cc(OCC(=O)N2CCC(c3nc4ccccc4o3)CC2)c1 -14.6%
COc1ccc(C)cc1NC(=O)Cn1cc(S(=O)(=O)N2CCC(C)CC2)c2ccccc2c1=O -22.5%
CCOc1ccc(NC(=O)c2c(NCc3cc(OC)c(OC)cc3OC)sc3c2CCCC3)cc1 -16.8%
COc1ccc(NC(=O)Cn2c(-c3ccc(F)cc3)cc(C(C)=O)c2C)c(OC)c1 -11.1%
O=S(=O)(c1ccccc1)n1nc(-c2ccc(Cl)cc2)nc1NCc1ccccc1 10.8%
CC(=O)Nc1ccc(S(=O)(=O)NCC2CCC(C(=O)NCCc3ccc(C)cc3)CC2)cc1 (stereo not given) -14.5%
COc1ccc(CCNC(=O)Cn2c(=O)nc(-c3ccccc3)c3cc(Cl)ccc32)cc1OC -18.5%
CC(=O)c1cccc(NC(=O)c2ccc3c(c2)N(Cc2ccc(C)cc2)CCS3)c1 20.8%
N#C/C(=C\c1ccc(F)cc1)c1nc(-c2ccc(-c3ccccc3)cc2)cs1 7.24%
COCCCNc1nc2c(c(=O)[nH]c(=O)n2C)n1CC(O)COc1ccc(Cl)cc1 (stereo not given) -1.9%
COc1cccc(CC(=O)Nc2c(C(=O)N3CCN(c4ccccc4F)CC3)oc3ccccc23)c1 -29.5%
Cc1cc(C)c2c(=O)c3c(oc2c1)C(=O)N(CCCOC(C)C)C3c1ccccc1F (stereo not given) -13.5%
CCCC1=Nc2cc(C(=O)NC3CCCCC3)ccc2Sc2ccc(C)cc21 -39.6%
CC[C@@]1(O)C(=O)OCc2c1cc1n(c2=O)Cc2c-1nc1ccccc1c2/C=N/OC(C)(C)C -40.4%
COC(=O)c1c(NC(=O)c2ccc(C(C)(C)C)cc2)sc2c1CCC(C)C2 (stereo not given) -8.83%
CCN(C(=O)Cn1nc(Cc2ccncc2)c2ccccc2c1=O)c1ccc(OC)cc1 -8.75%
CCc1ccc(NC(=O)CNC(=O)Cn2c(C)cc3ccccc3c2=O)cc1 -16.1%
CCOc1ccc(CCNC(=O)c2ccc(CSCc3ccccc3C)o2)cc1OCC -39.7%
O=C(CSc1nc(=O)n(Cc2ccncc2)c2c1CCC2)Nc1cccc(F)c1 -31.7%
CCN(C(=O)C(NS(=O)(=O)c1ccc(Br)s1)c1ccccc1)c1ccc(C)c(C)c1 (stereo not given) -43.6%
CC1(C)CC(=O)c2cc(-c3nc(-c4ccc(F)cc4)cs3)c(=O)[nH]c2C1 -8.26%
CCC(=O)N1c2ccccc2C(C)(c2ccccc2)CC1(C)C (stereo not given) -3.88%
CN1CCN(C(=O)c2ccc3c(c2)N(Cc2ccc(F)cc2)C(=O)c2ccccc2S3=O)CC1 (stereo not given) -7.07%
CC(C)(C)OC(=O)N1CCC(c2c(C(=O)NCc3ccccc3)cnn2-c2ccc(F)cc2)CC1 -0.417%
O=C1Nc2cc(Cl)ccc2Oc2ccccc21 -15.3%
O=C(CSc1nc(-c2ccccc2)no1)N1CCN(c2ccccc2)CC1 -5.86%
CCOc1ccccc1NC(=O)c1cc(S(=O)(=O)N2CCOCC2)cn1C -14.2%
CCN1CCc2c(sc(-n3cccc3)c2C(C)NC(=O)Nc2cc(Cl)c(OC)cc2OC)C1 (stereo not given) -0.554%
Cc1ccc(NC(=O)c2cc(S(=O)(=O)N3CCCCCC3)ccc2F)cc1F -29.2%
CCCNC(=O)c1cnn2c(C(F)F)cc(-c3ccccc3)nc12 -17.4%
Cc1sc2c(c1C)c(=O)n(Cc1ccccc1)c(=O)n2CC(=O)N(C)c1ccccc1 7.65%
CC1(C)CC(=O)c2cc(-c3nc(-c4ccc(Cl)cc4)cs3)c(=O)[nH]c2C1 -3.97%
O=C(COc1cccc(Cl)c1)N1CCC(c2nc3ccccc3o2)CC1 -21.7%
CCOc1ccc(NC(=O)CSc2nc3c([nH]c4ccccc43)c(=O)n2-c2cc(C)cc(C)c2)cc1 -14.5%
O=C(NCc1ccccc1Cl)C1CCCN(C(=O)c2cnn(-c3ccc(F)cc3)c2-n2cccc2)C1 (stereo not given) -38.7%
Cc1cccc(N2CCN(C(=O)c3cnc4c(C)cccn4c3=O)CC2C)c1 (stereo not given) -1.9%
Cc1nc2c(-c3ccccc3)c(C)nn2c(C)c1CCC(=O)NCCc1ccccc1 -4.99%
CC(C)c1ccc(NC(=O)N2CCN(c3ccc(Cl)c(Cl)c3)CC2)cc1 -41.5%
NCCc1ccn[nH]1 -6.21%
CCOC(=O)c1c(C)oc2c1cc(NS(=O)(=O)c1ccc(C)cc1)c1ccccc12 -17.8%
Cc1ccc(N2CCN(C(=O)c3c(C)oc4ncnc(N5CCCCC5)c34)CC2)c(C)c1 -38.8%
O=C(NC1CC(=O)N(c2ccc(Cl)cc2)C1)C1CCCC1 (stereo not given) -11.4%
COc1ccc(NC(=O)CSc2nc3c(oc4ccccc43)c(=O)n2-c2ccccc2)cc1OC -18.1%
COc1ccc(-c2nc3scc(CCNS(=O)(=O)c4c(C)cc(C)cc4C)n3n2)cc1OC -23.5%
CCc1nn2c(=O)cc(COC(=O)c3ccc4c(c3)OCO4)nc2s1 12.7%
O=C(NCCn1cc(SCc2ccccc2)c2ccccc21)c1cccs1 -36.6%
COc1ccccc1CNC(=O)CCCCn1c(=O)c2ccccc2n(Cc2ccccc2C)c1=O -30.6%
Cc1cc(C)cc(C(=O)Nc2cccc(-c3nc4ncccc4o3)c2C)c1 -0.66%
CC(C)(C)C1CCc2c(sc(NC(=O)c3ccccc3F)c2C(=O)NCc2ccco2)C1 (stereo not given) -19%
NC(=O)c1ncn([C@@H]2O[C@H](CO)[C@@H](O)[C@H]2O)c1N -1.4%
CC(=O)c1cccc(NC(=O)c2ccc(Cl)c(S(=O)(=O)N3CCOCC3)c2)c1 -22.9%
CCOC(=O)c1cc2c(=O)n3ccccc3nc2n(CCOC)c1=NC(=O)c1cc2ccccc2o1 12.3%
c1ccc(N2CCN(Cc3nnc(-c4ccc5c(c4)OCO5)o3)CC2)cc1 20.2%
COc1ccc(C2=NS(=O)(=O)N(C)C(C(=O)Nc3ccc(OC(F)(F)F)cc3)=C2)cc1 -27.4%
CN(Cc1ccccc1)S(=O)(=O)c1nnc(NC(=O)c2ccccc2Cl)s1 -21.2%
COc1ccc(-c2nc(Cn3c(=O)cc(-c4ccccc4)c4c(C)nn(C)c43)c(C)o2)cc1OC -6.51%
CCOc1ccc(Nc2nc3c(S(=O)(=O)c4ccc(CC)cc4)nnn3c3ccc(Cl)cc23)cc1 0.199%
CC1CCN(S(=O)(=O)c2ccc3c(ccc(=O)n3CC(=O)NCc3ccc(Cl)cc3)c2)CC1 -34%
CC(=O)N1CCc2cc(Br)cc(S(=O)(=O)NCCc3ccc(Cl)cc3)c21 -6.21%
CC(=O)c1cccc(NC(=O)CCc2nc3cccnc3n2Cc2cccs2)c1 -17.1%
O=C(c1cccn1-c1nnc(N2CCCCC2)s1)N1CCN(c2ccc(Cl)cc2)CC1 -12.9%
COc1ccc(CCNc2nc3ccc(C)cc3n3cnnc23)cc1OC -4.7%
CCOC(=O)CSc1nc(-c2ccc(F)cc2)cc(C(F)(F)F)c1C#N -27.2%
COc1ccc(S(=O)(=O)N(CC(=O)Nc2cc(C)cc(C)c2)c2ccc(Cl)cc2)cc1 -34.9%
CCn1c(C(=O)N2CCC(C(=O)N3CCN(c4ccc(OC)cc4)CC3)CC2)cc2sccc21 -23.9%
COc1ccc(Cl)cc1N=C1NC(=O)CC(C(=O)Nc2ccccc2C(F)(F)F)S1 (stereo not given) -23.2%
CCc1ccccc1N1CC(c2nc3ccccc3n2CCOc2ccc(Cl)c(C)c2)CC1=O (stereo not given) -69.6%
CCNc1nc(NC(C)(C)C)nc(Oc2ccc(=O)n(-c3ccccc3)n2)n1 -28.5%
CC(C)Oc1ccc(CNC(=O)c2ccc3nc(C(C)C)oc3c2)cc1 20.8%
CN(C)c1ccc(C(=O)Nc2c(C(=O)NC(C)(C)C)oc3ccccc23)cc1 1.02%
Cc1cc(C)cc(NC(=O)C(CC(C)C)NC(=O)C2CCCCC2)c1 (stereo not given) -4.42%
Cc1ccc(NS(=O)(=O)c2c(C)nc3sccn3c2=O)c(Cl)c1 -20.5%
Cc1ccc(Cl)c(OCC(O)CNC(C)(C)C)c1 (stereo not given) -7.37%
